# Laboratory results as given in patent US8168667B2 (Galapagos NV, priority 2006, dated 2012).
# At least one structure is not confirmed: it was looked up by name or label, or the drawing left a doubt.
# Target: T1, human androgen receptor (hAR) (Homo sapiens, UniProt P10275)
# T1 sequence (P10275 1-920): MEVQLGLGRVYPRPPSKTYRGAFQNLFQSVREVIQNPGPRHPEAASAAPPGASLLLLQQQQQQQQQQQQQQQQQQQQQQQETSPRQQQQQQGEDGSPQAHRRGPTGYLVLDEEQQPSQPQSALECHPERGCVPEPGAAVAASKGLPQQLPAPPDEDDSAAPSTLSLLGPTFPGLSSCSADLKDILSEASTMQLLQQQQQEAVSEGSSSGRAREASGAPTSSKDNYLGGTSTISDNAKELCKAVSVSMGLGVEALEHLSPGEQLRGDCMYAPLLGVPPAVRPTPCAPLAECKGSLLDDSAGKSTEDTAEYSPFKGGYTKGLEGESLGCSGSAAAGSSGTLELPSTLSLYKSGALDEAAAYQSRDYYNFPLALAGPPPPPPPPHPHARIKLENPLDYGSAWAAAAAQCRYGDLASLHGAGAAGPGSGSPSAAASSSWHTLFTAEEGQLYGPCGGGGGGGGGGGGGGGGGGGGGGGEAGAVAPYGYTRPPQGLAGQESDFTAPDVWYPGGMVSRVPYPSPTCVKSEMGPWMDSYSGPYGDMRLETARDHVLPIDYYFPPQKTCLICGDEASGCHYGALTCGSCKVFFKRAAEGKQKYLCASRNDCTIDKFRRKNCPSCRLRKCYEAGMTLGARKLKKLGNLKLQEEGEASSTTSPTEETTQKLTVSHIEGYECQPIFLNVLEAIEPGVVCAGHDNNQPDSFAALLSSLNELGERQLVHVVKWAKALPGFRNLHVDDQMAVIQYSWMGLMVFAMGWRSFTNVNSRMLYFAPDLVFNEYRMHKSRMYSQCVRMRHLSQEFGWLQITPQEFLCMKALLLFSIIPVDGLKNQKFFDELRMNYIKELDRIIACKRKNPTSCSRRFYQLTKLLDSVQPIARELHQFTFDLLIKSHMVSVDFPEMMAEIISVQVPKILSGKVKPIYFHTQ
# Test: Functional response test: hAR transactivation (luciferase reporter) in HALP2 cells
# Format: cell-based
# Settings: not given
# Excerpt: This test constitutes a method of identifying pure or partial agonists which mimic the effects of natural hormones, such as DHT (dihydrotestosterone) in the present case or, on the other hand, antagonists which inhibit them.
# For this transactivation test, plasmids encoding a reporter gene and the human androgen receptor (hAR) are introduced together by transfection into the HeLa cell line. The reporter plasmid contains luciferase cDNA under the control of the AREs contained in the promoter sequences of the probasin gene (3xpbAREminicoll-luciferase/pGL3-puro). The expression of the reporter gene constitutes an indication of the transcriptional activity of hAR. It also encodes a protein allowing the cells expressing it to resist a treatment with puromycin. The plasmid encoding hAR contains the cDNA of hAR under the control of the Cytomegalovirus (CMV) promoter. It also encodes a protein allowing the cells expressing it to resist a treatment with neomycin. The treatment of cells with increasing amounts of potentially agonistic compounds will increase the expression of the reporter gene. To detect antagonists, on the other hand, increasing doses of test compounds are tested in the presence of […] of DHT. The expression of the reporter gene, which is constant for each dose of DHT, decreases when the concentration of the test compounds increases.
# For this test, HeLa cells were obtained from the American Type Culture Collection (Rockville, Md.) and cultivated in DMEM medium containing 4.5 g/l of glucose, supplemented with Glutamax and with nonessential amino-acids and with 10% of foetal calf serum (SVF; Dominique Dutscher).
# On the day before transfection, a million cells were seeded in DMEM medium without phenol red, supplemented with Glutamax and with desteroided SVF (5%) in Petri dishes. The cells were transfected with 4 μg of the puromycin resistance plasmids pcDNA3-hAR and 3xpbAREminicoll-luciferase/pGL3 using the reagent “Lipofectamine plus” (Invitrogen), following the supplier's recommendations. The day after transfection, the cells were seeded to different cell densities (10,000 to 100,000 cellules per Petri dish). Two days after transfection, the transfected cells were selected in DMEM medium without phenol red, supplemented with Glutamax and with desteroided SVF (5%) containing 400 μg/mL of G418 (Invitrogen) and 150 ng/mL of puromycin (Sigma). The culture medium was renewed weekly until resistant clones appeared. The resistant clones were removed and amplified before being tested for their functional response. […]
# The functional response test was conducted on 96-well plates. The HALP2 cells were seeded (30,000 cells per well) 24 hours before the phase of stimulation in DMEM medium containing 4.5 g/L of glucose, supplemented with Glutamax and nonessential amino-acids, and with desteroided SVF (5%).
# On the day of stimulation, the seeding medium was replaced by DMEM medium without phenol red, supplemented with Glutamax and with desteroided SVF (5%). […] The cells were placed in contact with the compounds for 20 hours at 37° C.
row,Compound,KSchild (nM) potency [nM]
1,"CC(O)C1(c2ccc(O)cc2)C(=O)N(c2ccc(C#N)c(C(F)(F)F)c2)C(=O)N1C (mixture of isomers) [Example 192, 4-[2,5-dioxo-4-(1-hydroxyethyl)-4-(4-hydroxyphenyl)-3-methylimidazolidin-1-yl]-2-trifluoromethylbenzonitrile]",1.26
2,"Cc1c(N2C(=O)N(C)C(C)(c3ccc(O)cc3)C2=O)ccc(C#N)c1Cl (centres unmarked) [Example 8, 2-chloro-4-[3,4-dimethyl-2,5-dioxo-4-(4-hydroxyphenyl)imidazolidin-1-yl]-3-methylbenzonitrile]",1.5
3,"COc1ccc(C2(CF)C(=O)N(c3ccc(C#N)c(C(F)(F)F)c3)C(=O)N2C)cc1 (centres unmarked) [Example 159, 4-[4-fluoromethyl-4-(4-methoxyphenyl)-3-methyl-2,5-dioxoimidazolidin-1-yl]-2-trifluoromethylbenzonitrile]",40
4,"COc1ccc(C2(C)C(=O)N(c3ccc(C#N)c(C(F)(F)F)c3)C(=O)N2C)c(F)c1 (centres unmarked) [Example 160, 4-[3,4-dimethyl-2,5-dioxo-4-(2-fluoro-4-methoxyphenyl)-imidazolidin-1-yl]-2-trifluoromethylbenzonitrile]",60
5,"C=CCOCC1(c2ccc(OC)cc2)C(=O)N(c2ccc(C#N)c(C(F)(F)F)c2)C(=O)N1C (centres unmarked) [Example 164, 4-[2,5-dioxo-4-(4-methoxyphenyl)-3-methyl-4-[(2-propenyloxy)methyl]imidazolidin-1-yl]-2-trifluoromethylbenzonitrile]",1000
6,"CCCCC1(c2ccc(OC)cc2)C(=O)N(c2ccc(C#N)c(C(F)(F)F)c2)C(=O)N1C (centres unmarked) [Example 166, 4-[4-butyl-2,5-dioxo-4-(4-methoxyphenyl)-3-methylimidazolidin-1-yl]-2-trifluoromethyl-benzonitrile]",300
7,"CCC1(c2ccc(OC)cc2)C(=O)N(c2ccc(C#N)c(C(F)(F)F)c2)C(=O)N1C (centres unmarked) [Example 168, 4-[2,5-dioxo-4-ethyl-4-(4-methoxyphenyl)-3-methylimidazolidin-1-yl]-2-trifluoromethylbenzonitrile]",30
8,"COc1ccc(C2(C)C(=O)N(c3ccc(C#N)c(C(F)(F)F)c3)C(=O)N2C)cc1Cl (centres unmarked) [Example 170, 4-[4-(3-chloro-4-methoxyphenyl)-3,4-dimethyl-2,5-dioxoimidazolidin-1-yl]-2-trifluoromethylbenzonitrile]",100
9,"COCN1C(=O)N(c2ccc(C#N)c(C(F)(F)F)c2)C(=O)C1(C)c1ccc(O)cc1 (centres unmarked) [Example 222, 4-[4-(4-hydroxyphenyl)-3-methoxymethyl-4-methyl-2,5-dioxoimidazolidin-1-yl]-2-trifluoromethylbenzonitrile]",4
10,"CCOC(=O)N1C(=O)N(c2ccc(C#N)c(C(F)(F)F)c2)C(=O)C1(C)c1ccc(O)cc1 (centres unmarked) [Example 230, 4-[2,5-dioxo-3-(ethoxycarbonyl)-4-(4-hydroxyphenyl)-4-methylimidazolidin-1-yl]-2-trifluoromethylbenzonitrile]",60
11,"CCOc1ccc(C2(C)C(=O)N(c3ccc(C#N)c(C(F)(F)F)c3)C(=O)N2C)cc1 (centres unmarked) [Example 341, 4-[3,4-dimethyl-2,5-dioxo-4-(4-ethoxyphenyl)imidazolidin-1-yl]-2-trifluoromethylbenzonitrile]",30
12,"CC(C)Oc1ccc(C2(C)C(=O)N(c3ccc(C#N)c(C(F)(F)F)c3)C(=O)N2C)cc1 (centres unmarked) [Example 342, 4-[3,4-dimethyl-2,5-dioxo-4-[4-(1-methylethoxy)phenyl]imidazolidin-1-yl]-2-trifluoromethylbenzonitrile]",40

# Same assay, conditions: antagonism; concentration which increases the EC50 of the DHT by a factor of 2, Schild regression; HALP2 cells
row,Compound,KSchild (nM) potency [nM]
1,"CC(=O)N1C(=O)N(c2ccc(C#N)c(C(F)(F)F)c2)C(=O)C1(C)c1ccc(O)cc1 (centres unmarked) [Example 228, 4-[3-acetyl-2,5-dioxo-4-(4-hydroxyphenyl)-4-methylimidazolidin-1-yl]-2-trifluoromethylbenzonitrile]",20
2,"COc1ccc(C2(C)C(=O)N(c3ccc(C#N)c(C(F)(F)F)c3)C(=O)N2C)cc1 (centres unmarked) [Example 340, 4-[3,4-dimethyl-2,5-dioxo-4-(4-methoxyphenyl)imidazolidin-1-yl]-2-trifluoromethylbenzonitrile]",20
